In the supplement of paper PMC3334620:
In all, about 33,000 sequences were measured (“E-score (-0.5 to 0.5)”: median about -0.012, highest 2% from about 0.27 on). This is one part of the list.

These sequences were tested against T1, Vhr1 (UniProt P40522) (assay: PBM E-score (8-mer binding enrichment) (E-score (-0.5 to 0.5)); higher = stronger / more preferred TF binding; most listed sequences are background and not binding sites). Conditions: protein concentration: 200 nM; construct: GST-full length.
T1 sequence: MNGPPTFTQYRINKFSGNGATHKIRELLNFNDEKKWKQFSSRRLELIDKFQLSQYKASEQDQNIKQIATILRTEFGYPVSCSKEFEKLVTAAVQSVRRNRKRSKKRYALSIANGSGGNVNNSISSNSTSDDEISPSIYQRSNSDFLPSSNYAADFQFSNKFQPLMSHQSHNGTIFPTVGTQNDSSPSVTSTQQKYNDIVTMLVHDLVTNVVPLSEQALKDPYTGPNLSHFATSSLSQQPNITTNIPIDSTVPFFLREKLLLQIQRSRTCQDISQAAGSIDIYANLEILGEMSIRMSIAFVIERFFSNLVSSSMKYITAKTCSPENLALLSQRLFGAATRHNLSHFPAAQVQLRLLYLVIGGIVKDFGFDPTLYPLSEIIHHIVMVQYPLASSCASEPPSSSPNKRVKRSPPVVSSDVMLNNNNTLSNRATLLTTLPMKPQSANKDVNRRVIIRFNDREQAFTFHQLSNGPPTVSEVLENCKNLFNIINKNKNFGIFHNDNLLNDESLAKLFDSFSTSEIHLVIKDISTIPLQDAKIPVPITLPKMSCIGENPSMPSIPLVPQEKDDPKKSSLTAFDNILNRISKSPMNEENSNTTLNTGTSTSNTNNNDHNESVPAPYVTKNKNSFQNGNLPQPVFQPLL
In short: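 Universal all-10-mer Agilent arrays, double-stranded by primer extension on fresh or once-stripped slides, were probed with about 100-200 nM GST-tagged yeast transcription factors made by PURExpress. Fluorescent anti-GST detected bound protein, and masliner normalised the scans. E-scores from the Universal PBM Analysis Suite were given to each ungapped eight-base word pooled with its reverse complement.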

Sequence	PBM E-score
CCGCTTAC	-0.0818
CGAAATTA	0.0249
CATCCCGG	0.00723
ACCTGTAG	-0.0729
GTGGCAGA	-0.179
ATGTGCCG	-0.123
ACAAGAAG	0.0641
ATAAGAGG	0.116
CAAGTGCG	-0.0205
CGCAGAAG	-0.0751
ATACCGGA	0.0174
AGGCCGGG	-0.0907
AGATCTCC	-0.149
GGGTCGAA	-0.0102
TCGCGCGA	0.0513
AGAACTAG	-0.218
ATTGATCC	-0.0749
TAACGTTA	-0.148
CGAATACC	0.164
AGATCCAA	-0.136
AAACTCAC	0.0426
ACGACTGC	-0.0133

Sequence	PBM E-score
GAGCCACA	0.155
ATAGATTG	0.226
CGCCAAAG	-0.116
CTGTGCTA	0.0587
GCCTTGTA	-0.204
CTATCGCA	-0.0431
ATGTGACA	0.033
CGTAGGTA	-0.112
CCCAATCA	0.0557
CCCATAAC	0.0584
AGTTTATA	-0.0744
ATCAGTAG	0.0725
ATCCGACC	0.0441
ACTGCGCA	0.129
AATTACTG	0.166
ACCCCATC	0.107
CATGGACC	-0.0938
ACAGTTGA	0.0298
AGGTAAAG	-0.0742
ACAAGCCC	-0.0271
CCGGACCA	0.07
ACTTGCGA	0.0242

Sequence	PBM E-score
AAGTATAT	-0.00851
ATGGCGTC	0.136
AGCTTCCG	-0.136
CCATGTCG	0.118
CGAATTAA	-0.0894
AAACGTGC	-0.204
AACAGCCT	-0.132
ATCCTGAC	0.169
GCCACCGA	0.04
AGACCGAC	0.2
AGCACTGA	0.135
ACGTTATC	-0.115
CGCTAACA	-0.0839
TCTTGCAA	0.0699
ATATTTTA	-0.0713
CGAGTATA	0.139
ACATATGC	0.0524
CCCAGGGA	-0.0351
CGAAATCC	-0.0182
TGGAGTAA	0.118
GTGTCCGA	-0.143
AAGACCTT	-0.226

Sequence	PBM E-score
ATTCCGTC	-0.0753
TGTCCAAA	-0.113
GTTGCGCA	-0.043
CCCGCTTC	0.0365
GTTAAAAA	-0.21
ATCAATTC	-0.0503
ACCAGCCT	-0.0798
GCTTGTCC	-0.126
CCAGCGAG	0.181
CTTGGAAA	-0.0499
AGGAGGAT	-0.0351
CACCGGGC	-0.0093
GGGGGTGA	0.132
AACCCACT	0.246
AAGCCTAC	-0.234
CCTGAACC	0.246
GTATACAC	0.0427
AGCCGGAG	0.205
AGGATCGA	-0.004
ACAGGCAT	0.0293
